This passage reports binding signal results from PMC12136788.

Some of the results follow.

B1: chr7:13894654:13894755:-|3pUTR|ENSG00000006468|msi1|total|mutant (ssRNA)
RNA: GGGAGUUCUACAGUCCGACGAUCUAUUCUCUUUCAUGCUGAAUUUACUAUGACCAUUUAUAAGCAGUGCAGUUAACUACAGACCGCAUUUCAGGACAAAACCGAUGACUCAAACCAUUUAUUGCUUAAAAAACCGCUUACGCCCAACAGAGGAUUGAGCAUCA
B2: ENSG00000198589:be:win_3451|CDS|ENSG00000198589|bound_else_gene|NA|bound_elsewhere_windowed (ssRNA)
RNA: GGGAGUUCUACAGUCCGACGAUCGAUGACAAAUUAAUAUUUCAAGAAGGAAAACCUGUUACUGAAAAGCAAACUGAUACUGAAACUCAAGAUUCUAAAGAUUCUGGAAUUCAGACUAUGACAGCAUCAGGGUCUUCAGCUAUGCAACAGAGGAUUGAGCAUCA
B3: chr6:75256125:75256201:-|CDS_3pUTR|ENSG00000112697|msi1_unk|total|mutant (ssRNA)
RNA: GGGAGUUCUACAGUCCGACGAUCUUUGGGGAUUGCUUACAUCGCUGUUGGAUCCAUCUCCUUCCUUCUGGGAGUUGUACUGCCCGUAAUUAAUCAUAAAUACCGAAACAGCCGUAAUACAGCUGACAUUACCAUUUAAUUUUACAACAGAGGAUUGAGCAUCA
B4: chrX:101625945:101626046:+|CDS|ENSG00000102401|unk|FALSE|unique (ssRNA)
RNA: GGGAGUUCUACAGUCCGACGAUCAGGUUCACUUUUUUUCUUUUUAAAAGAAUUUCAAGUGUGUGCUGAUAAGGUUCUGGGAAUAGAAAGUCACCAUGAUUUUUUGGUGAAAGUAAAAGUUGGAAAAUUCAUGGCCAAACUUGCCAACAGAGGAUUGAGCAUCA
B5: chr12:76028832:76028933:-|3pUTR|ENSG00000139289|msi1|FALSE|unique (ssRNA)
RNA: GGGAGUUCUACAGUCCGACGAUCAAAGGAAAAGACUGGAUAAACACAGGAUUUUCAGUAAGAAAACAACCCCAGUCUUGUCUUAGAAGCCACUUGUUGAGGAGUCUGUUGGGGGAAAAAAGAGGAUAUGCUUUUAAAGGUAGACAACAGAGGAUUGAGCAUCA
B6: ENSG00000070961:be:win_3301|CDS|ENSG00000070961|bound_else_gene|NA|bound_elsewhere_windowed (ssRNA)
RNA: GGGAGUUCUACAGUCCGACGAUCCGGCGUGGCCAAAUCUUGUGGUUUAGAGGUCUGAACAGAAUCCAAACACAGAUUCGAGUGGUGAAUGCAUUUCGUAGUUCUUUAUAUGAAGGGUUAGAAAAACCGGAAUCAAGAAGUUCGCAACAGAGGAUUGAGCAUCA
B7: chr6:41099391:41099486:+|3pUTR|ENSG00000001167|msi1_unk|total|mutant (ssRNA)
RNA: GGGAGUUCUACAGUCCGACGAUCAGUGCUUAAGCUGCCAACAGUCCGAAGAUGCUAUUUAUUUGUGUCUGUAAGUUUGUACACCGUAAUGCCAGCCUUGUUGCUGAAUUUUUUAUUUGGGGGGAGAUGACUUUGAAUUUUGUUCAACAGAGGAUUGAGCAUCA
B8: chr19:19111484:19111585:+|3pUTR|ENSG00000181035|msi1|total|mutant (ssRNA)
RNA: GGGAGUUCUACAGUCCGACGAUCAGCCUCAUGUCUAUCCCCGACCCUGCAAGCAGCUGGGUCCCCAAGAGUGCAUCUCCCCCCCGAGUUGCCUGCCCAUGCCCACCUGCUUUGUAACCUUCCCAGGAGAUUCAUGCUUGCUCUCAACAGAGGAUUGAGCAUCA
B9: chr15:82681419:82681580:-|CDS|ENSG00000103723|control|control|control (ssRNA)
RNA: GGGAGUUCUACAGUCCGACGAUCCAGUGCCCUCCGUGUCCUCUCUAGCAUCCGUGUGCCCAUCAUAGUGCCCAUCAUGAUGCUAGCUAUCAAGGAAGCCGCCUCGGACAUGUCACCCUAUGUGCGGAAAACAGCUGCCCACGCCAACAGAGGAUUGAGCAUCA
B10: chr7:20410991:20411126:+|3pUTR|ENSG00000105855|msi1|FALSE|unique (ssRNA)
RNA: GGGAGUUCUACAGUCCGACGAUCAAAUUCUGCCUCAAGCAAAGUACCACAUUUUGAAUGUUUUCUUAGAUUUUGAUUGCAAGUAGAUAUCAGCAUUUUUUAAAUGAAAAGCUAUAUUAUCUUCUCCCUUCAAGGCAGCCUAAGCAACAGAGGAUUGAGCAUCA
B11: chr17:58495858:58495960:-|CDS|ENSG00000108389|unk|total|mutant (ssRNA)
RNA: GGGAGUUCUACAGUCCGACGAUCAGAAGAGACUAAGGGACCAGCUCCAGACCCUUCUGCCCAGGAUGAGCUGGGCCGGACUUCCGAUGGCACCGGGGAGCCACCUGAACAUUGUCCUGAAACAGAAGCUGUCAGUGCACUCUCCAACAGAGGAUUGAGCAUCA
B12: ENSG00000198589:be:win_1501|CDS|ENSG00000198589|bound_else_gene|NA|bound_elsewhere_windowed (ssRNA)
RNA: GGGAGUUCUACAGUCCGACGAUCUUGCUGGCCUUUAUCAUGGAAUUGUUGAAGAACUCAAUUGCUAUGCAGGAACAGAUGCUUGCCUGUAAGGGCUUCUUGGUAAUAGGAUAUAGCCUUGAAAAGUCUUCCAAAUCUCAUGUUCAACAGAGGAUUGAGCAUCA
B13: chr9:26926431:26926536:-|CDS|ENSG00000137055|unk|FALSE|bound_elsewhere (ssRNA)
RNA: GGGAGUUCUACAGUCCGACGAUCAGAGGUUUGGCAAUUUUGAGUGAAACAGAAUUUCUUUCCUGUGCAAAUGAUGCUAGUAUUAGAAGGUGGCAAAUCACUGGCGAGUGUCUUGAAGUAUAUUAUGGACAUACAAAUUAUAUUCAACAGAGGAUUGAGCAUCA
B14: chr7:92618090:92618217:-|CDS|ENSG00000105810|unk|FALSE|bound_elsewhere (ssRNA)
RNA: GGGAGUUCUACAGUCCGACGAUCUAUGUCCAUGUGUGGUUCUUUUGUAGCGUGAUUGGACUCCCAGGAGAAGAAGACUGGCCUAGAGAUGUUGCCCUUCCCAGGCAGGCUUUUCAUUCAAAAUCUGCCCAACCAAUUGAGAAGCAACAGAGGAUUGAGCAUCA
B15: chr1:32075697:32075801:+|CDS|ENSG00000121775|unk|FALSE|unique (ssRNA)
RNA: GGGAGUUCUACAGUCCGACGAUCCGAGCUGCCAGUCCAGGCCAGCAUUCUGUUUGAGUUGCAGCUCUUCUUCUGCCAGCUCAUAGCACUCUUCGUCCACUACAUCAACAUCUACAAGACAGUGUGGUGGUAUCCACCUUCCCACAACAGAGGAUUGAGCAUCA
B16: chrX:24560996:24561098:-|3pUTR|ENSG00000102230|unk|FALSE|unique (ssRNA)
RNA: GGGAGUUCUACAGUCCGACGAUCACUCAAGACUUUUUACAGAGAACUGUGGGCUCAGUUAUGAUCUCAGCAUCUGAAUGGUCUAGGUAGUAUCACCAUUAUCUCUGGCCCUAGGUUUGCCAAGUAGGAUGAAGACUCUAAGUGCAACAGAGGAUUGAGCAUCA
B17: chr3:125012942:125013043:-|CDS|ENSG00000173706|msi1|total|mutant (ssRNA)
RNA: GGGAGUUCUACAGUCCGACGAUCGCCUCUUAUGACCACUCCUGGCACCCUGUCAAGCACAGCAUCUCUGGUCACUGGCCCUACCGCCGUACAGACUACAGCUGGAAAACAGCUCUCGCUGACCCAUCCUGAAAUACCCGUUCCCAACAGAGGAUUGAGCAUCA
B18: chr10:29523788:29523889:-|CDS|ENSG00000197321|unk|total|mutant (ssRNA)
RNA: GGGAGUUCUACAGUCCGACGAUCAAUGCAAGUGCCACUGACUAUAAGUUUUCUUCUUCAACCGAAAAUUCGGACUCUCCAGUCCGAAGCAUUCUGAAAUCGCAAGCUUGGCAGCCUUUGGCCGAGGGCCGCGAGAACAAGGGACAACAGAGGAUUGAGCAUCA
B19: chr15:43232589:43233190:-|three_prime_utr|ENSG00000104055|control|control|control (ssRNA)
RNA: GGGAGUUCUACAGUCCGACGAUCGCUCCAGCAAGAGCCACAGAGGGGAUGACGUGUUCAUUUUCUGUCUCUCCUGACUCCACUAGAAAUUUAAGCUCCAUGAGGGCAAAGACUUUGCUUUGUUUACUACCCCUAUACUCAGAACAACAGAGGAUUGAGCAUCA
B20: ENSG00000198589:be:win_1151|CDS|ENSG00000198589|bound_else_gene|NA|bound_elsewhere_windowed (ssRNA)
RNA: GGGAGUUCUACAGUCCGACGAUCUGGGAUACAAGGGUACAUUUAAAUUCAAAGCAGAAAGCGACCUUUUCCUUGCUGAGCAUCACAAACUUUUAUUGUACGAUGGGAAACUCUCUAGUGCCAUUGCAUUCACGUACAAUCCACCAACAGAGGAUUGAGCAUCA
B21: chr10:103999120:103999255:+|CDS|ENSG00000065613|unk|total|mutant (ssRNA)
RNA: GGGAGUUCUACAGUCCGACGAUCAUCUAAGGACAGACCCUAUGACUACAAAGCUGAUGUUUGGUCCCUGGGUAUCACUUUAACCGAAAUGGCUGAGACCGAACCACCUCAUCAUGAAUUAAAUCCAAUGCGAGUGCUGCUAAACAACAGAGGAUUGAGCAUCA
B22: chr7:115017934:115018035:+|3pUTR|ENSG00000135272|unk|total|mutant (ssRNA)
RNA: GGGAGUUCUACAGUCCGACGAUCUGAGAUGAAACGCCGUUUCCCGUUAUAUCAUUACUUAAAGGGCUUAAAAAGAAAAAACUCCGCAAACUUUUGAAUCUUUCUUUUAUUGCUAUUUACACAUACAUACACACAUACAAAACCCAACAGAGGAUUGAGCAUCA

The target of this test is T1, UNK ZnF1-6 (called full-length) (human, UniProt Q9C0B0 30-357).
T1 sequence: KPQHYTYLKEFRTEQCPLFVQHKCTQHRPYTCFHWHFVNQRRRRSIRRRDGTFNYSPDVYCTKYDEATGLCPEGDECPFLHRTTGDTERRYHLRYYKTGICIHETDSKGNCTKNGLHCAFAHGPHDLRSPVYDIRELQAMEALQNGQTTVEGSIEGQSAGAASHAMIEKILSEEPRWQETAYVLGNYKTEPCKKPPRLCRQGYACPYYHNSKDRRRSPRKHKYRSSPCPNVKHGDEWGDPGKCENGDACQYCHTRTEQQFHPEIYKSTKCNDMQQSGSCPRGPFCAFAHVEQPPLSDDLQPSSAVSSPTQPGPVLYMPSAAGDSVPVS
The experiment in a line: nsRBNS (natural sequence RNA bind-n-seq); RBNS binding buffer (assumed for nsRBNS): 25 mM Tris pH 7.5, 150 mM KCl, 3 mM MgCl2, 0.01% Triton X-100, 500 ug/ml BSA, 20 U/ml SUPERase-In, 4 C; UNK is unkempt and MSI1 is Musashi-1; names of the RNAs are library labels; protein concentration not given here; high values mean tight binding.
Regarding B1, the binding signal came to 0.607 enrichment R. Take B2: the binding signal was 0.481 enrichment R. The result for B3 reads 0.4 enrichment R.

Molecule B4 showed a binding signal of 0.389 enrichment R. Then B5, with 0.753 enrichment R.

In turn, B6 returned a binding signal of 0.535 enrichment R. The result for B7 reads 0.584 enrichment R; that for B8, 0.82 enrichment R.

With B9, the binding signal is 0.839 enrichment R. Then B10, with 0.416 enrichment R; and B11, with 0.759 enrichment R. B12 returned a binding signal of 0.416 enrichment R.

On to B13, for which the binding signal was determined as 0.796 enrichment R. The result for B14 reads 0.56 enrichment R; that for B15, 0.551 enrichment R; that for B16, 0.626 enrichment R.

On to B17, for which the binding signal worked out at 0.682 enrichment R. Then B18, with 0.51 enrichment R; and B19, with 1.64 enrichment R; and B20, with 0.389 enrichment R.

On to B21, for which the binding signal is 0.475 enrichment R.

As for B22, the binding signal was 1.38 enrichment R.
